Laboratory results from the supplement of paper PMC3334620.
In all, about 33,000 sequences were measured (“E-score (-0.5 to 0.5)”: median about -0.012, highest 2% from about 0.27 on). The list shows a part of the results.

The sequences below were run against T1, Vhr1 (UniProt P40522) (assay: PBM E-score (8-mer binding enrichment) (E-score (-0.5 to 0.5)); higher = stronger / more preferred TF binding; most listed sequences are background and not binding sites). Conditions: protein concentration: 200 nM; construct: GST-full length.
T1 sequence: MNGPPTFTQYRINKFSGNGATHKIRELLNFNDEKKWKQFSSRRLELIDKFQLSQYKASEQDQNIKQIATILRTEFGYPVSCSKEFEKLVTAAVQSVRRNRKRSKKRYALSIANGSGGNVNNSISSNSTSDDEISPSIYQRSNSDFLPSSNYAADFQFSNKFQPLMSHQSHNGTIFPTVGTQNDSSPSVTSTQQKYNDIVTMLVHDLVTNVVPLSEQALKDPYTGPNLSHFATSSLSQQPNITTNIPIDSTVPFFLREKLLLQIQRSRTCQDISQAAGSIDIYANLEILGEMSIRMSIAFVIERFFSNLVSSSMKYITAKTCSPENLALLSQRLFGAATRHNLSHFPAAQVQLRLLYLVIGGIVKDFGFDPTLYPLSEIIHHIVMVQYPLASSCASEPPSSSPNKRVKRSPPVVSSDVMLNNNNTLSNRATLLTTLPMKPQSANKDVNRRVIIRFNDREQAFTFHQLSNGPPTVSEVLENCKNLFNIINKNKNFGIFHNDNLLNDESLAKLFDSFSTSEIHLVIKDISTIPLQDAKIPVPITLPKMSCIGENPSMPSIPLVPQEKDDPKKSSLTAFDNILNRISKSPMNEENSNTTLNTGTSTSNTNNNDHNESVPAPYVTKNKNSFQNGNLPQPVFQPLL
Summary of the method: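 The E-score, a modified Wilcoxon-Mann-Whitney statistic, was computed by the Universal PBM Analysis Suite for every ungapped eight-base word pooled with its reverse complement. Scans behind it were normalised with masliner after bound GST-tagged yeast transcription factors were detected with fluorescent anti-GST. The proteins, at about 100-200 nM, had been applied to universal all-10-mer Agilent arrays made double-stranded by primer extension.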
With ATGCAGTA the “PBM E-score” value was 0.0873.
With GAAAGAGA the “PBM E-score” value was -0.0159.
With ACCGTCCC the “PBM E-score” value was -0.144.
For CTTCTAGA, the “PBM E-score” value was -0.226.
For ATCCGCTG, the “PBM E-score” value was 0.0611.
In the case of AACTTCCG, the “PBM E-score” value is reported as -0.0253.
In the case of GTATTCAA, the “PBM E-score” value is reported as 0.00227.
In the case of ACGGAGCG, the “PBM E-score” value is reported as 0.0309.
AACAGAAT was tested, and the “PBM E-score” value was -0.0741.
For CACCTGCG, the “PBM E-score” value was 0.0143.
In the case of ATATTGGC, the “PBM E-score” value is reported as 0.0463.
In the case of CCGGGTGA, the “PBM E-score” value is reported as 0.208.
With AAGTGCGT the “PBM E-score” value was -0.0339.
With CTCGGCAG the “PBM E-score” value was -0.0396.
With AAGCACCT the “PBM E-score” value was -0.15.
GCATAAAA was tested, and the “PBM E-score” value was -0.124.
In the case of AAGATAGC, the “PBM E-score” value is reported as -0.19.
With AAGCTTTG the “PBM E-score” value was -0.181.
For ATGTGAGC, the “PBM E-score” value was 0.103.
With TCAGGTCA the “PBM E-score” value was -0.00531.
For ACTCGTGA, the “PBM E-score” value was 0.159.
For CGTCCCGC, the “PBM E-score” value was 0.00796.
AACGTTCG was tested, and the “PBM E-score” value was -0.0484.
AGTAGCTC was tested, and the “PBM E-score” value was -0.0175.
For ATATGCCG, the “PBM E-score” value was 0.0437.
For TAGTTTCA, the “PBM E-score” value was 0.092.
GTAAATAA was tested, and the “PBM E-score” value was -0.125.
GACAGTCA was tested, and the “PBM E-score” value was 0.158.
With AGGACATA the “PBM E-score” value was -0.133.
With GACATAAA the “PBM E-score” value was 0.0904.
With GTCCTGTA the “PBM E-score” value was -0.0863.
For GTATCCTA, the “PBM E-score” value was -0.105.
For CACAGACG, the “PBM E-score” value was 0.104.
TACATGAA was tested, and the “PBM E-score” value was 0.0664.
CACCTCGG was tested, and the “PBM E-score” value was 0.0719.
With ACTGGACT the “PBM E-score” value was -0.0357.
In the case of GGAACTCC, the “PBM E-score” value is reported as 0.0126.
For GTACCCGA, the “PBM E-score” value was -0.161.
In the case of ACACTGCT, the “PBM E-score” value is reported as -0.0775.
CTCTCCGA was tested, and the “PBM E-score” value was -0.125.
In the case of GATACACA, the “PBM E-score” value is reported as 0.099.
For CATTTTGG, the “PBM E-score” value was -0.164.
For CTAAATCA, the “PBM E-score” value was 0.0382.
In the case of AGAAATAG, the “PBM E-score” value is reported as -0.28.
In the case of ACTTCTAA, the “PBM E-score” value is reported as -0.211.
In the case of GCCCGTCC, the “PBM E-score” value is reported as -0.0732.
With TACTTGCA the “PBM E-score” value was -0.00561.
ACGGTACG was tested, and the “PBM E-score” value was 0.0831.
With CCTACATA the “PBM E-score” value was -0.0648.
With GGGTCTGA the “PBM E-score” value was 0.0313.
For AGTCGAAA, the “PBM E-score” value was -0.089.
AGGTTCTG was tested, and the “PBM E-score” value was -0.137.
In the case of GTGGCATA, the “PBM E-score” value is reported as -0.0412.
With TGCCAGAA the “PBM E-score” value was -0.0526.
GAGAAGAA was tested, and the “PBM E-score” value was -0.138.
In the case of ACTGAGAG, the “PBM E-score” value is reported as 0.129.
For AGCGATTG, the “PBM E-score” value was -0.252.
With CGCGTCAG the “PBM E-score” value was -0.12.
In the case of GAGAGGAA, the “PBM E-score” value is reported as -0.0571.
For ATACTCAT, the “PBM E-score” value was 0.277.
In the case of ACCAGAAC, the “PBM E-score” value is reported as 0.262.
For AGAAAGGA, the “PBM E-score” value was -0.0926.
For ATTTAACA, the “PBM E-score” value was 0.00701.
AATCAAAT was tested, and the “PBM E-score” value was -0.0562.
For AGGCAGGC, the “PBM E-score” value was -0.159.
For ATGGACAA, the “PBM E-score” value was -0.131.
AGGGTATG was tested, and the “PBM E-score” value was 0.138.
With CCAATTCC the “PBM E-score” value was -0.0792.
In the case of ATTATCGC, the “PBM E-score” value is reported as 0.0303.
CGGAAAAA was tested, and the “PBM E-score” value was -0.246.
For AACTGTGG, the “PBM E-score” value was 0.185.
With AAGGCATC the “PBM E-score” value was -0.371.
With CTAAAGCA the “PBM E-score” value was -0.0185.
In the case of ATGTATCG, the “PBM E-score” value is reported as 0.146.
With ATCAGGTG the “PBM E-score” value was 0.197.
GTGTAAAC was tested, and the “PBM E-score” value was 0.0594.
CTAGAGTC was tested, and the “PBM E-score” value was 0.116.
AGAGACTC was tested, and the “PBM E-score” value was 0.222.
For CGAGTGCG, the “PBM E-score” value was 0.0386.
AGCCAACC was tested, and the “PBM E-score” value was 0.11.
With AAGACGAC the “PBM E-score” value was 0.0366.
For TGAGATCA, the “PBM E-score” value was 0.00763.
For CTTCTTCC, the “PBM E-score” value was -0.155.
ACCGGGGA was tested, and the “PBM E-score” value was -0.161.
For ACACTGCA, the “PBM E-score” value was 0.0651.
In the case of ACGTTTGG, the “PBM E-score” value is reported as -0.0898.
